Hit rate of the full screen: of about 45,000 compounds, about 65 (0.1%) were called active. The call rests on the fitted dose curve; in most records, active means well fitted activation curve with a large enough effect; inconclusive means small, poorly fitted or top-dose-only effect; inactive means no such curve, though single readings can be large or run the other way. This is one part of the list.

Sequence of UniProt P54803 (P54803 whole entry, looked up): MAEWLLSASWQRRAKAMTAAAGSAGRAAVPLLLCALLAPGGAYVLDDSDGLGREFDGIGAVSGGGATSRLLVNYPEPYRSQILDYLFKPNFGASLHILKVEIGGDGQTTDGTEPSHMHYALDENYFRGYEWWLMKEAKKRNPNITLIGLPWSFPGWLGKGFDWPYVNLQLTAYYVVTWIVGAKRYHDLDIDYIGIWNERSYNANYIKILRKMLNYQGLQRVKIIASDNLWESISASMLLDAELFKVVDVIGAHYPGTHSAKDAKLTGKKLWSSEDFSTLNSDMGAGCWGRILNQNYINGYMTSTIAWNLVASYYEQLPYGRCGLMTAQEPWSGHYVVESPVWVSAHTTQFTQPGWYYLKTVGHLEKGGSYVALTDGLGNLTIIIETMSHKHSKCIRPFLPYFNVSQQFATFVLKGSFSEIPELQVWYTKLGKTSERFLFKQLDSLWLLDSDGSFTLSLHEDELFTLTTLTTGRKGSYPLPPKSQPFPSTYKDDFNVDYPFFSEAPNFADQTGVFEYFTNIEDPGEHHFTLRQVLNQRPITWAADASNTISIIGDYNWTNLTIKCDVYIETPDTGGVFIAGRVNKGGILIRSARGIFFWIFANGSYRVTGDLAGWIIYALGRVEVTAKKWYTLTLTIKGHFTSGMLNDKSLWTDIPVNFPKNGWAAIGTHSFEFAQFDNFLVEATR

In the experiment the target is Galactocerebrosidase (Homo sapiens) (UniProt P54803). The experiment is described as follows: A Novel Cell-Based Assay to Identify Small Molecules for B -Galactocerebrosidase. Further: 0% is about no effect; nearly all actives have a fitted effect of over 65% in size. Particulars: 145M-Twi-hGALC-G270D cells (Twitcher mouse brain line with human GALC G270D), HMU-beta-Gal fluorescence, 48 h; series mostly up to 57.5 µM; activation: at the top concentration. The procedure, abridged:
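Brain-derived Twitcher mouse 145M-Twi cells stably expressing human GALC-G270D or wild-type GALC, treated live, then residual GALC activity read by fluorescence of HMU-b-Gal substrate (0.1 mM final) in citrate-phosphate buffer pH 5.2 with sodium taurocholate. Signal increase indicates enhancement.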
As to `Cc1ccc2c(c1)N(C(=O)N1CCC(C(=O)NCc3ccccc3F)CC1)CC(C)O2` (stereo unspecified), the “activation” value is inactive: -23%.
The figure for `Nc1c(C(=O)c2ccccc2)sc(Nc2ccc(Cl)c(Cl)c2)c1C(=O)Nc1ccccc1` is inactive: 3.65%; for `Cc1cc(-n2nc3ccc(Cl)cc3n2)c(O)c(C(C)(C)C)c1` it is inactive: -11.4%.
The figure for `CCOc1ccc(NC(=O)CCSc2nc(-c3ccc4c(c3)OCO4)cc(C(F)(F)F)n2)cc1` is inactive: -16.3%.
The figure for `COc1ccc(-n2c3c(cc(-c4nc(-c5ccc(Cl)cc5)cs4)c2=O)C(=O)CC(C)(C)C3)cc1Cl` is inactive: -9.47%.
Turning to `COc1ccc(-c2cn3c(n2)sc2cc(C(=O)Nc4ccc(C)cc4C)ccc23)cc1`, the “activation” value was inactive: -13.7%.
Turning to `O=S(=O)(c1ccccc1)c1nc(-c2ccccc2F)oc1N1CCOCC1`, the “activation” value is inactive: -18.2%.
With `COc1ccc(OC)c(NC(=O)N2CCN(Cc3nc4ccc(C)cc4o3)CC2)c1` the figure was inactive: 3.69%.
In the case of `COc1cc2ccccc2cc1C(=O)Nc1ccc2oc(-c3cccc(C)c3)nc2c1`, the “activation” value was inactive: 9.59%.
`CN(C(=O)Cn1nnc(-c2ccc(S(C)(=O)=O)cc2)n1)c1ccccc1`: the “activation” value was inactive: -13.3%.
With `O=C1NC(c2ccccc2)(c2ccccc2)C(=O)N1COP(=O)(O)O` the figure was inactive: -16.3%; with `Cc1ccccc1NCc1nc2ccccc2n1CCOc1ccccc1`, inactive: -10.1%; with `CCN1C(=O)c2ccccc2Sc2ccc(NC(=O)c3ccc(C#N)cc3)cc21`, inactive: -17.2%.
The figure for `O[C@@H]1CO[C@H]2[C@@H]1OC[C@@H]2O` is inactive: -15.1%; for `COc1ccc(NC(=O)CSc2oc(-c3ccco3)nc2S(=O)(=O)c2ccccc2)c(OC)c1` it is inactive: -9.78%.
The figure for `COc1ccc(C(=O)Nc2nc3c(s2)Cc2cc(OC)ccc2-3)cc1` is inactive: -8.32%; for `Cc1c(C(=O)N(C)C)sc2c1c(=O)n(-c1ccccc1C(F)(F)F)c(=O)n2Cc1cccc(F)c1` it is inactive: -12%; for `CCCCCn1c(=O)c2c(nc3n2CCN3c2ccc(Br)cc2)n(C)c1=O` it is inactive: -8.5%.
As for `COc1cc(C)ccc1OCCSc1nc2ccc(NC(C)=O)cc2s1`, the “activation” value is inactive: -30.9%.
With `CCOC(=O)c1ccc(NC(=O)Cn2cnc3sc(C(=O)OCC)c(C)c3c2=O)cc1` the figure was inactive: -6.93%.
With `CCc1ccc(NC(=O)CSc2nc3c([nH]c4ccccc43)c(=O)n2-c2cccc(OC)c2)cc1` the figure was inactive: -7.26%.
With `CCC(Sc1nnc2c3ccccc3n(C)c2n1)C(=O)Nc1nnc(C(C)C)s1` (stereo unspecified), the “activation” value is inactive: -15.6%.
The figure for `CCOc1ccc(NC(=O)CSc2nc(=O)[nH]c3c2CCC3)cc1` is inactive: -7%.
In the case of `COC(=O)COc1ccc(Oc2nc(NC(C)(C)C)nc(N(C)C)n2)nn1`, the “activation” value is inactive: -10.7%.
The figure for `Cc1cc(F)ccc1NC(=O)CCSc1nc(-c2ccco2)cc(C(F)(F)F)n1` is inactive: -14.2%; for `Cc1ccc(C)c(CNC(=O)c2sc3ncnc(N(C)C4CCCCC4)c3c2C)c1` it is inactive: 0.587%.
With `COc1ccc(-c2cc3ccc(O)c(CN4CCCC4)c3oc2=O)cc1OC` the figure was inactive: -28.2%.
With `CCC1CN(C(=O)N2CCC(C(=O)N3CCN(c4cc(C)ccc4C)CC3)CC2)c2ccccc2O1` (stereo unspecified) the figure was inactive: -14.5%.
As to `CCn1c(CC2C(=O)N(C)c3ccc(Br)cc32)nc2ccccc2c1=O` (stereo unspecified), the “activation” value was inactive: -26.8%.
On to `CC(=O)Nc1ccc(Nc2ncnc3sc4c(c23)CCCC4)cc1`, for which the “activation” value is inactive: -11.4%.
The figure for `CCc1cc2c(cc3c(=O)n(CC(=O)NCCOC)nc(CC)n32)s1` is inactive: -7.53%.
With `Cc1ccc2nc(N(Cc3cccnc3)C(=O)CCOc3ccccc3)sc2c1` the figure was inactive: -5.22%; with `Cc1cccc(C(=O)N2CCc3cc(CNS(=O)(=O)c4cccs4)ccc32)c1`, inactive: -3.5%.
With `COc1ccc(CNC(=O)c2cn(-c3cccc(OC)c3)c(=O)c3ccccc23)cc1`, the “activation” value is inactive: -10.7%.
Take `Cc1ccc(C(=O)NC2(C(F)(F)F)N=C(c3ccccc3)N(C3CCCCC3)C2=O)cc1` (stereo unspecified): the “activation” value is inactive: -11.5%.
Take `COc1ccc(C(=O)NCC(c2ccc3c(c2)OCO3)N2CCOCC2)cc1OC` (stereo unspecified): the “activation” value was inactive: -5.94%.
With `CCOC(=O)c1c(C)c(-c2ccccc2)n(CC(=O)Nc2cccc(C)c2C)c1C`, the “activation” value was inactive: -18.8%.
The figure for `COc1ccc(OC)c(NC(=O)c2c(C)oc3ncnc(N4CCOCC4)c23)c1` is inactive: -2.68%; for `CC1CCN(C(=O)C(C)Sc2nc(-c3ccccc3)cc(C(F)(F)F)n2)CC1` (stereo unspecified) it is inactive: -14.3%.
Consider `O=C(Cn1c(=O)n2nc(-c3cccc(F)c3)nc2c2ccccc21)N1CCN(c2ccccc2F)CC1`, for which the “activation” value was inactive: -3.16%.
The figure for `O=C(c1cccc(Cl)c1)N1CCC(c2nc3ccccc3o2)CC1` is inactive: -17.9%.
With `O=C(O)c1ccc(C2Nc3ccccc3-c3nnc(SCc4ccc(Cl)cc4)nc3O2)cc1` (stereo unspecified) the figure was inactive: -20.1%; with `CCCN1C(=O)C2(c3ccccc31)c1c(oc3ccccc3c1=O)C(=O)N2CCCOC(C)C` (stereo unspecified), inactive: -8.08%.
The figure for `Cc1cccc(-c2nc(SCC(=O)N(C)c3ccccc3)c3c(=O)n(C)c(=O)n(C)c3n2)c1` is inactive: -5.85%.
Take `O=C(c1ccco1)N1CCN(C(=O)c2cnn(-c3cccc(F)c3)c2C2CCNCC2)CC1`: the “activation” value is inactive: -8.7%.
With `COc1ccccc1OCc1nc(-c2cccc(C)c2)no1` the figure was inactive: -16.9%; with `Cn1c(=O)cc(SCC(=O)N2CCN(c3ccccc3)CC2)c2ccccc21`, inactive: -20.5%.
As to `COc1cccc(C(=O)Nc2ccc(C(=O)OCc3cc(=O)n4nc(C5CC5)sc4n3)cc2)c1`, the “activation” value was inactive: -12%.
With `COc1cc(OC)c(NC(=O)N2CC=C(c3c[nH]c4ccccc34)CC2)cc1Cl` the figure was inactive: -13.2%.
With `CCOC(=O)C1CCN(C(=O)c2ccc3c(c2)N=C(CC)c2cc(C)ccc2S3)CC1` the figure was inactive: 0.209%.
In the case of `Cc1ccc(-c2cc(C(F)(F)F)n3ncc(-c4ccc(Cl)cc4)c3n2)cc1`, the “activation” value is inactive: -18.3%.
With `CC(Sc1nc2c([nH]c3ccccc32)c(=O)n1-c1ccccc1)c1ccccc1` (stereo unspecified) the figure was inactive: -0.854%; with `CCC(=O)N1CCc2cc(S(=O)(=O)CCC(=O)NCc3ccc(OC)cc3)ccc21`, inactive: 5.15%.
As to `O=C(CSc1nc2c(cnn2-c2ccc(F)cc2)c(=O)[nH]1)Nc1ccccc1C(F)(F)F`, the “activation” value was inactive: -13.2%.
The figure for `COc1ccccc1N1CCN(C(=O)c2cc3c(=O)oc4ccccc4c3s2)CC1` is inactive: -5.35%; for `COc1ccccc1NC(=O)C1=C(C)Nc2nc(SCc3cccc(F)c3)nn2C1c1ccc(C(=O)O)cc1` (stereo unspecified) it is inactive: -17.2%; for `COc1cccc(CNC(=O)c2cc3ccc4cccnc4c3[nH]2)c1` it is inactive: 1.74%.
With `Cc1ccc(C)c(NC(=O)Cn2c(=O)n(-c3ccc(CC(=O)NCC4CCCO4)cc3)c(=O)c3ccccc32)c1` (stereo unspecified) the figure was inactive: -9.03%.
With `Cc1ccc(OCC(=O)NCC2(N(C)C)CCCCC2)cc1C` the figure was inactive: -15.2%; with `CCCCC(CC)COC(=O)c1ccccc1O` (stereo unspecified), inactive: -2.46%; with `O=C(CCN1CCN2CCCC2C1)N1c2ccccc2Sc2ccc(Cl)cc21` (stereo unspecified), inactive: -12.5% [at 23.8 µM].

These data come from PubChem BioAssay AID1159614 (National Center for Advancing Translational Sciences (NCATS), 2016).
